In assay [1] the test system is RAW-Dual. In words: NF-kB SEAP reporter activity, fold change vs agonist alone; higher = enhanced NF-kB activity. As to conditions: library stock concentration (final ~1000-fold dilution): 10 mM. The essentials: (§1)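 RAW-Dual macrophages were seeded in DMEM at 50,000 cells/well in 384-well plates, given 50 nL of library stock by pin tool, and given a PRR agonist 1 h later. Plates were held at 37 °C, 5% CO2 for 20 hours, after which supernatant was read for IRF by QuantiLuc luminescence and for NF-κB by QuantiBlue absorbance at 620 nm. Reporter activity is expressed as fold change over wells that received agonist alone. A well was called cytotoxic when IncuCyte confluency fell below 70% of agonist controls in both mask sets.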

Assay [2] concerns RAW-Dual. In words: NF-kB SEAP reporter activity, fold change vs agonist alone; cytotoxicity flag (confluency mask): not cytotoxic; higher = enhanced NF-kB activity. The essentials:
as §1

For assay [3], the system named is RAW-Dual. In words: NF-kB SEAP reporter activity, fold change vs agonist alone; cytotoxicity flag (confluency mask): cytotoxic (confluency <70% of control); higher = enhanced NF-kB activity. The essentials: as §1
The mark [4] stands for this setting: cytotoxicity flag (confluency mask): not cytotoxic, agonist: Imiquimod (TLR7) […].
[5] abbreviates: cytotoxicity flag (confluency mask): not cytotoxic, agonist: MPLA (TLR4) […].
[6] abbreviates: agonist: ODN 1826 (TLR9) 0.5 ug/mL.
Where [7] appears, read: agonist: Pam2CSK4 (TLR2/6) 0.1 ug/mL.
The mark [8] stands for this setting: agonist: Pam3CSK4 (TLR2/1) 0.1 ug/mL.

The full ranking holds about 2,900 compounds; the median of “NF-kB SEAP reporter activity, fold change vs agonist alone” is about 0.99, and the highest 2% start at about 2.6. The list shows a part of the results.

For `CN(C)C(=O)c1cc2cnc(Nc3ccc(N4CCNCC4)cn3)nc2n1C1CCCC1`, the “NF-kB SEAP reporter activity” value with RAW-Dual [1] (setting [4]) and with RAW-Dual [1] (setting [5]) was 1.11 throughout.
Turning to `CN(C)C(=O)c1cc2cnc(Nc3ccc(N4CCNCC4)cn3)nc2n1C1CCCC1` (library stock concentration (final ~1000-fold dilution): 10 mM), the “NF-kB SEAP reporter activity” value in the assay on RAW-Dual [2] (agonist: LPS (TLR4) 0.1 ug/mL) came to 0.908; with RAW-Dual [2] (setting [6]), 0.825; in the assay on RAW-Dual [2] (setting [7]) it was 1.24; in the assay with RAW-Dual [2] (setting [8]) it was 1.75.
The like results for `C=CC(C)(O)CCC=C(C)C` (stereo not given) (library stock concentration (final ~1000-fold dilution): 10 mM) were, in that order, 1.16, 0.952, 1.14 and 0.916.
Take `C=CC(C)(O)CCC=C(C)C` (stereo not given): in the assay on RAW-Dual [1] (setting [5]), the “NF-kB SEAP reporter activity” value was 1.14.
As for `CC(C)CC(NC(=O)CNC(=O)c1cc(Cl)ccc1Cl)B1OC(=O)CC(CC(=O)O)(C(=O)O)O1` (stereo not given) (library stock concentration (final ~1000-fold dilution): 10 mM), the “NF-kB SEAP reporter activity” value in the assay with RAW-Dual [2] (agonist: LPS (TLR4) 0.1 ug/mL) came out at 0.585; in the assay on RAW-Dual [2] (setting [6]) it was 0.938; with RAW-Dual [2] (setting [7]), 0.905; in the assay on RAW-Dual [2] (setting [8]), 0.999.
For the molecule `CC(C)CC(NC(=O)CNC(=O)c1cc(Cl)ccc1Cl)B1OC(=O)CC(CC(=O)O)(C(=O)O)O1` (stereo not given), the “NF-kB SEAP reporter activity” value amounted to 0.956 with RAW-Dual [1] (setting [4]) and 0.913 in the assay with RAW-Dual [1] (setting [5]).
As for `CN1CCN(c2ccc(Nc3cc(-c4cccc(-n5ccc6cc(C7CC7)cc(F)c6c5=O)c4CO)cn(C)c3=O)nc2)CC1` (library stock concentration (final ~1000-fold dilution): 10 mM), the “NF-kB SEAP reporter activity” value was determined as 2.24 in the assay with RAW-Dual [2] (agonist: LPS (TLR4) 0.1 ug/mL), 0.361 with RAW-Dual [2] (setting [6]), 0.97 with RAW-Dual [2] (setting [7]) and 1.13 with RAW-Dual [2] (setting [8]).
Turning to `CN1CCN(c2ccc(Nc3cc(-c4cccc(-n5ccc6cc(C7CC7)cc(F)c6c5=O)c4CO)cn(C)c3=O)nc2)CC1`, the “NF-kB SEAP reporter activity” value worked out at 0.817 in the assay on RAW-Dual [1] (setting [4]) and 0.979 in the assay with RAW-Dual [1] (setting [5]).
Regarding `Cc1cc(Nc2cc(CN3CCOCC3)c3nc(C)c(Cc4ccc(Cl)cc4F)n3n2)[nH]n1`, the “NF-kB SEAP reporter activity” value was 0.954 in the assay on RAW-Dual [1] (setting [4]) and 0.944 with RAW-Dual [1] (setting [5]).
`Cc1cc(Nc2cc(CN3CCOCC3)c3nc(C)c(Cc4ccc(Cl)cc4F)n3n2)[nH]n1` (library stock concentration (final ~1000-fold dilution): 10 mM): the “NF-kB SEAP reporter activity” value came out at 1.17 in the assay on RAW-Dual [2] (agonist: LPS (TLR4) 0.1 ug/mL), 0.972 with RAW-Dual [2] (setting [6]), 0.725 with RAW-Dual [2] (setting [7]) and 0.99 in the assay with RAW-Dual [2] (setting [8]).
In the case of `CN(CC1COCCO1)S(=O)(=O)Nc1ccc2ccc3ncc(-c4cnn(C)c4)cc3c(=O)c2c1` (stereo not given), the “NF-kB SEAP reporter activity” value stood at 1.63 in the assay on RAW-Dual [1] (setting [4]) and 1.88 in the assay on RAW-Dual [1] (setting [5]).
Consider `CN(CC1COCCO1)S(=O)(=O)Nc1ccc2ccc3ncc(-c4cnn(C)c4)cc3c(=O)c2c1` (stereo not given) (library stock concentration (final ~1000-fold dilution): 10 mM), for which the “NF-kB SEAP reporter activity” value amounted to 2.25 with RAW-Dual [2] (agonist: LPS (TLR4) 0.1 ug/mL), 1.06 in the assay with RAW-Dual [2] (setting [6]), 0.543 with RAW-Dual [2] (setting [7]) and 0.611 in the assay on RAW-Dual [2] (setting [8]).
Take `Cc1c(C)c2c(c(C)c1O)CCC(C)(CCCC(C)CCCC(C)CCCC(C)C)O2` (stereo not given): the “NF-kB SEAP reporter activity” value with RAW-Dual [1] (setting [5]) came out at 1.08.
Regarding `Cc1c(C)c2c(c(C)c1O)CCC(C)(CCCC(C)CCCC(C)CCCC(C)C)O2` (stereo not given) (library stock concentration (final ~1000-fold dilution): 10 mM), the “NF-kB SEAP reporter activity” value in the assay with RAW-Dual [2] (agonist: LPS (TLR4) 0.1 ug/mL) was found to be 1.03; in the assay on RAW-Dual [2] (setting [6]), 0.942; with RAW-Dual [2] (setting [7]) it was 1.13; with RAW-Dual [2] (setting [8]) it was 0.951.
The matching figures for `CCN1CCN(c2ccc(Nc3cc(N(C)C(=O)Nc4c(Cl)c(OC)cc(OC)c4Cl)ncn3)cc2)CC1` (library stock concentration (final ~1000-fold dilution): 10 mM): 1.28, 0.925, 1.35 and 1.09.
Take `CCN1CCN(c2ccc(Nc3cc(N(C)C(=O)Nc4c(Cl)c(OC)cc(OC)c4Cl)ncn3)cc2)CC1`: the figures for the “NF-kB SEAP reporter activity” value in the assay with RAW-Dual [1] (setting [4]) and in the assay on RAW-Dual [1] (setting [5]) were 0.791 and 0.913, respectively.
Take `Oc1cc(O)cc(/C=C/c2ccc(O)c(O)c2)c1` (library stock concentration (final ~1000-fold dilution): 10 mM): the “NF-kB SEAP reporter activity” value with RAW-Dual [2] (agonist: LPS (TLR4) 0.1 ug/mL) was found to be 1.04; with RAW-Dual [2] (setting [6]), 0.848; in the assay on RAW-Dual [2] (setting [7]) it was 1.07; in the assay on RAW-Dual [2] (setting [8]), 0.785.
As for `Oc1cc(O)cc(/C=C/c2ccc(O)c(O)c2)c1`, the entries for the “NF-kB SEAP reporter activity” value in the assay with RAW-Dual [1] (setting [4]) and with RAW-Dual [1] (setting [5]) were 1.67 and 1.3, respectively.
The matching figures for `Nc1nnc(-c2cccc(Cl)c2Cl)c(N)n1`: 1.07 and 1.06.
Take `Nc1nnc(-c2cccc(Cl)c2Cl)c(N)n1` (library stock concentration (final ~1000-fold dilution): 10 mM): the “NF-kB SEAP reporter activity” value was determined as 1.19 with RAW-Dual [2] (agonist: LPS (TLR4) 0.1 ug/mL), 0.949 in the assay with RAW-Dual [2] (setting [6]), 1.09 with RAW-Dual [2] (setting [7]) and 1.14 with RAW-Dual [2] (setting [8]).
On to `NCCNc1ccc(NCCN)c2c1C(=O)c1ccncc1C2=O.O=C(O)/C=C\C(=O)O.O=C(O)/C=C\C(=O)O` (library stock concentration (final ~1000-fold dilution): 10 mM), for which the “NF-kB SEAP reporter activity” value came out at 0.338 in the assay with RAW-Dual [3] (agonist: LPS (TLR4) 0.1 ug/mL), 0.395 with RAW-Dual [3] (setting [6]), 0.161 in the assay on RAW-Dual [3] (setting [7]) and 0.274 in the assay on RAW-Dual [3] (setting [8]).
For `NCCNc1ccc(NCCN)c2c1C(=O)c1ccncc1C2=O.O=C(O)/C=C\C(=O)O.O=C(O)/C=C\C(=O)O`, in the assay with RAW-Dual [1] (cytotoxicity flag (confluency mask): cytotoxic (confluency <70% of control), agonist: MPLA (TLR4) […]), the “NF-kB SEAP reporter activity” value came out at 0.351.
In the case of `CN1CCCC(n2nc(Cc3ccc(Cl)cc3)c3ccccc3c2=O)CC1.Cl` (stereo not given), the “NF-kB SEAP reporter activity” value in the assay with RAW-Dual [1] (setting [4]) was 0.948; in the assay on RAW-Dual [1] (setting [5]), 0.941.
Regarding `CN1CCCC(n2nc(Cc3ccc(Cl)cc3)c3ccccc3c2=O)CC1.Cl` (stereo not given) (library stock concentration (final ~1000-fold dilution): 10 mM), the “NF-kB SEAP reporter activity” value in the assay on RAW-Dual [2] (agonist: LPS (TLR4) 0.1 ug/mL) stood at 1.01; with RAW-Dual [2] (setting [6]), 0.935; in the assay with RAW-Dual [2] (setting [7]), 0.774; in the assay with RAW-Dual [2] (setting [8]), 0.795.
The like results for `CN(C)CCCN1c2ccccc2Sc2ccccc21.Cl` (library stock concentration (final ~1000-fold dilution): 10 mM) were, in that order, 1.2, 0.824, 0.963 and 0.703.
Turning to `CN(C)CCCN1c2ccccc2Sc2ccccc21.Cl`, the “NF-kB SEAP reporter activity” value in the assay on RAW-Dual [1] (setting [5]) was determined as 1.68.
As to `CNC(=O)C(Cc1ccccc1)NC(=O)C(CC(C)C)C(CSc1cccs1)C(=O)NO` (stereo not given) (library stock concentration (final ~1000-fold dilution): 10 mM), the “NF-kB SEAP reporter activity” value in the assay with RAW-Dual [2] (agonist: LPS (TLR4) 0.1 ug/mL) turned out to be 1.21; with RAW-Dual [2] (setting [6]), 0.849; in the assay on RAW-Dual [2] (setting [7]), 0.949; in the assay with RAW-Dual [2] (setting [8]), 1.28.
In the case of `CNC(=O)C(Cc1ccccc1)NC(=O)C(CC(C)C)C(CSc1cccs1)C(=O)NO` (stereo not given), the “NF-kB SEAP reporter activity” value amounted to 1.09 in the assay on RAW-Dual [1] (setting [4]) and 1.25 in the assay on RAW-Dual [1] (setting [5]).
